Laboratory results published in PubChem BioAssay AID1508624 (National Center for Advancing Translational Sciences (NCATS), 2021).
“And” between values parts separate entries of the source, which are not always exact repeats. Identical values can stand only once. Out of some 48,000 compounds screened, about 120 (0.25%) were called active. Inconclusive results (about 4%) are left out. Calls come from the whole dose curve; as a rule, active = well fitted activation curve with a large enough effect; inconclusive = small, poorly fitted or top-dose-only effect, or another doubt; inactive = no such curve, though single readings can be large or run the other way. Some of the results follow.

Test: Primary qHTS for Identification of Small Molecule Activators of Huntingtin-Antisense Promoter Activity; note: nearly all actives have a fitted effect of over 55% in size
Details: HEK293 HTT-AS promoter firefly luciferase reporter, 24 h
Outline: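 HEK293 Fluc reporter, 2,500 cells/well, 24 h pre-culture; cpds up to 57.5 uM final, 24 h 37 degrees C; Dual-Glo, 10 min RT; normalized vehicle = 0%, zero RLU = -100%.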

[1] = at 57.5 µM (top of the series) unless noted

CN[C@@H]1Cc2cccc3[nH]c(=O)n(c23)C1
activity change, positive = activation [1]: inactive: -9.2%

O=C1NCN(c2ccccc2)C12CCN(CCCOc1ccc(F)cc1)CC2
activity change, positive = activation [1]: inactive: -12.5%

CCCCCCCCCCCCCCCC[N+](C)(C)C
activity change, positive = activation [1]: inactive: -36.5%

Cc1cccc(-n2c(/C=C\c3cccc(Br)c3)nc3ccccc3c2=O)c1
activity change, positive = activation [1]: inactive: -25%

CN1C[C@H](CNC(=O)OCc2ccccc2)C[C@@H]2c3cccc4c3c(cn4C)C[C@H]21
activity change, positive = activation [1]: inactive: -21.3%

Cc1ccc(Cn2cccc(C(=O)Nc3ccc(C)c(Cl)c3)c2=O)cc1
activity change, positive = activation [1]: inactive: -16%

COC[C@H]1OC(=O)c2coc3c2[C@@]1(C)C1=C(C3=O)[C@@H]2CC[C@H](O)[C@@]2(C)C[C@@H]1OC(C)=O
activity change, positive = activation [1]: inactive: -39.1%

O=[N+]([O-])c1ncc[nH]1
activity change, positive = activation [1]: inactive: -15.8%

COc1ccc(C2CC(=O)Oc3c2c(=O)oc2ccccc32)c(OC)c1OC (stereo not drawn)
activity change, positive = activation [1]: inactive: -11.9%

CCN[C@H](C)Cc1cccc(C(F)(F)F)c1
activity change, positive = activation [1]: inactive: -13.2% [at 116 µM]

CCCCCCCCCC(=O)O[C@H]1CC[C@H]2[C@@H]3CCC4=CC(=O)CC[C@@H]4[C@H]3CC[C@]12C
activity change, positive = activation [1]: inactive: 1.43%

Cc1ccc(CNC(=O)CCCn2c(=O)c3sccc3n(CC(=O)Nc3c(C)cccc3C)c2=O)cc1
activity change, positive = activation [1]: inactive: -17.1%

CC#C[C@]1(O)CC[C@H]2[C@@H]3C[C@H](C)C4=CC(=O)CC[C@]4(C)[C@H]3CC[C@@]21C
activity change, positive = activation [1]: inactive: -27.7%

CC(C)c1cccc(C(C)C)c1O
activity change, positive = activation [1]: inactive: -4.87% and inactive: -14.2%

Cc1nc(-c2ccc(-c3ccc(C(=O)N4CCc5cc6c(cc54)C4(CCN(C)CC4)CO6)cc3)c(C)c2)no1
activity change, positive = activation [1]: inactive: -14%

CC(C)C(Br)C(=O)NC(N)=O (stereo not drawn)
activity change, positive = activation [1]: inactive: -1.25%

COP(=O)(OC)OC=C(Cl)Cl
activity change, positive = activation [1]: inactive: 4.7%

C[C@@H]1O[C@@H](O[C@@H]2C=C3CC[C@@H]4[C@@H](CC[C@]5(C)[C@H](c6ccc(=O)oc6)CC[C@@]45O)[C@@]3(C)CC2)[C@H](O)[C@H](O)[C@H]1O
activity change, positive = activation [1]: inactive: -50%

N#CC(C#N)=Cc1ccc(O)c(O)c1
activity change, positive = activation [1]: inactive: 12.8%

COc1ccc(C)cc1NC(=O)c1cccn(Cc2ccccc2Cl)c1=O
activity change, positive = activation [1]: inactive: -18.4%

Cc1ccc(-n2c(/C=C/c3cc(Br)cs3)nc3ccccc3c2=O)cc1C
activity change, positive = activation [1]: inactive: 0.19% [at 57.5 µM, percent change from vehicle, -100% = no light]

Oc1ccc2c3c1O[C@H]1[C@@H](O)C=C[C@H]4[C@@H](C2)NCC[C@@]341
activity change, positive = activation [1]: inactive: -16.2% [at 116 µM]

C#C[C@]1(O)C=C[C@@H]2[C@@H]3CCC4=CC(=O)CC[C@@H]4[C@H]3CC[C@@]21CC
activity change, positive = activation [1]: inactive: -6.81%

CCNc1nc(Cl)nc(NCC)n1
activity change, positive = activation [1]: inactive: -11%

O=C(COc1ccccc1[N+](=O)[O-])N1CCN(CCc2ccncc2)CC1
activity change, positive = activation [1]: inactive: -19%

Cc1cccc(C)c1NC(=O)CN1CCCC1=O
activity change, positive = activation [1]: inactive: -9.44% and inactive: -1.77%

Cc1cccc(C)c1OCC(=O)Nc1ccc(Cl)cc1C(=O)c1ccccc1
activity change, positive = activation [1]: inactive: -19% [at 57.5 µM, percent change from vehicle, -100% = no light]

C=CCC1=C(C)C(OC(=O)C2C(C=C(C)C)C2(C)C)CC1=O (stereo not drawn)
activity change, positive = activation [1]: inactive: -19.6% [at 116 µM]

C[C@@H]1CC2=CC(=O)CC[C@@H]2[C@H]2CC[C@@]3(C)[C@@H](CC[C@]3(C)O)[C@@H]21
activity change, positive = activation [1]: inactive: -23%

CN1CCC(O)(c2ccc(F)cc2)C(C(=O)c2ccc(F)cc2)C1 (stereo not drawn)
activity change, positive = activation [1]: inactive: -5.96%

Cn1cc(C2=C(c3cn(C4CCN(Cc5ccccn5)CC4)c4ccccc34)C(=O)NC2=O)c2ccccc21
activity change, positive = activation [1]: inactive: -21.5% and inactive: -11.5%

Cn1c(=O)n(C)c2cc(CNCCc3ccccc3F)ccc21
activity change, positive = activation [1]: inactive: -8.97% [at 57.5 µM, percent change from vehicle, -100% = no light]

O=c1n(Cl)c(=O)n(Cl)c(=O)n1Cl
activity change, positive = activation [1]: inactive: 1.95%

Cc1ccc(-n2c(/C=C/c3ccccc3)nc3ccccc3c2=O)cc1Cl
activity change, positive = activation [1]: inactive: -6.87%

C=CCN1CC[C@]23c4c5ccc(O)c4O[C@H]2C(=O)CC[C@@]3(O)[C@H]1C5
activity change, positive = activation [1]: inactive: -1.73%

O=C1CC(c2ccccc2Br)c2c(c3ccccc3oc2=O)O1 (stereo not drawn)
activity change, positive = activation [1]: inactive: -4.8% [at 57.5 µM, percent change from vehicle, -100% = no light]

OCCOc1ccccc1
activity change, positive = activation [1]: inactive: 0.0498%

CC(CC(C#N)(c1ccccc1)c1ccccc1)N(C)C (stereo not drawn)
activity change, positive = activation [1]: inactive: -20% [at 116 µM]

CC[C@H]1C=CC=CC[C@@H](C)[C@H](O)[C@@](C)(O)C(=O)[C@@H](C)[C@H](O)[C@@H](C)C(=O)[C@@H](C)[C@H](O)[C@@H](C)C=CC(=O)O[C@@H]2[C@@H](C)[C@H](CC1)O[C@]1(CC[C@H](C)[C@H](C[C@@H](C)O)O1)[C@H]2C
activity change, positive = activation [1]: inactive: -77.9%

CC1(N2CCC(n3c([C@@H]4CCCNC4)nc4ccccc43)CC2)CCCCCCC1
activity change, positive = activation [1]: inactive: -17%

COP(=O)(OC)C(O)C(Cl)(Cl)Cl (stereo not drawn)
activity change, positive = activation [1]: inactive: -7.86%

O=c1c(C2CC(c3ccc(-c4ccc(Br)cc4)cc3)Cc3ccccc32)c(O)sc2ccccc12 (stereo not drawn)
activity change, positive = activation [1]: inactive: -30.9%

O=C1C=CC[C@@H]2[C@H]3CCCN4CCC[C@@H](CN12)[C@@H]34
activity change, positive = activation [1]: inactive: -78.1%

COC(=O)[C@@H](N)CCCN/C(N)=N/[N+](=O)[O-]
activity change, positive = activation [1]: inactive: -5.44%

Nc1ccc(Cl)cc1
activity change, positive = activation [1]: inactive: -3.11% [at 116 µM]

CC[C@]1(O)CC[C@H]2[C@@H]3CCC4=CCCC[C@@H]4[C@H]3CC[C@@]21C
activity change, positive = activation [1]: inactive: -17%

CCC(C(=O)Nc1ccccc1F)N1C(=O)CN=C(c2ccccc2)c2ccccc21 (stereo not drawn)
activity change, positive = activation [1]: inactive: -27%

CCc1ccc(-n2nc(C)c3c2NC(=O)CSC3c2ccc(OC)cc2OC)cc1 (stereo not drawn)
activity change, positive = activation [1]: inactive: -37.3%

CN[C@@H](C)[C@H](O)c1ccccc1
activity change, positive = activation [1]: inactive: -4.09%

COc1ccc(Cl)cc1NC(=O)c1sc2nc3c(cc2c1N)N1CCC3CC1
activity change, positive = activation [1]: inactive: 12.6% [at 57.5 µM, percent change from vehicle, -100% = no light]

O=S(=O)(O)C(F)(F)C(F)(F)C(F)(F)C(F)(F)C(F)(F)C(F)(F)C(F)(F)C(F)(F)F
activity change, positive = activation [1]: inactive: -11.3% [at 116 µM]

ClCc1cccc(Cl)c1
activity change, positive = activation [1]: inactive: -3.5%

CCOC(=O)c1ccc(NC(=O)c2cccn(Cc3ccccc3F)c2=O)cc1
activity change, positive = activation [1]: inactive: -49.5%

C[C@]12CC[C@@H]3c4ccc(OC(=O)N(CCCl)CCCl)cc4CC[C@H]3[C@@H]1CC[C@@H]2OP(=O)(O)O
activity change, positive = activation [1]: inactive: 2.65%

O=C(NCC1CCOCC1)c1cnc(Nc2ccc(Cl)cc2Cl)nc1C(F)(F)F
activity change, positive = activation [1]: inactive: -32.8%

COc1c2c(cc3c1OCO3)CCN(C)C2
activity change, positive = activation [1]: inactive: -14.8%

N#Cc1ccccc1NC(=O)c1cccn(Cc2ccccc2)c1=O
activity change, positive = activation [1]: inactive: -21.7% [at 57.5 µM, percent change from vehicle, -100% = no light]

COc1ccc(-c2nc(CN3C(=O)CN=C(c4ccccc4Cl)c4cc(Cl)ccc43)c(C)o2)cc1OC
activity change, positive = activation [1]: inactive: -42.6%

O=C(Cn1cc(C(=O)c2ccccc2)c2ccccc21)Nc1ccc(Br)cc1
activity change, positive = activation [1]: inactive: -26.1%

NCC(O)c1ccc(O)cc1 (stereo not drawn)
activity change, positive = activation [1]: inactive: -6.96%

C[C@](O)(CS(=O)(=O)c1ccc(F)cc1)C(=O)Nc1ccc(C#N)c(C(F)(F)F)c1
activity change, positive = activation [1]: inactive: -35.2%

N#Cc1nn(-c2c(Cl)cc(C(F)(F)F)cc2Cl)c(N)c1S(=O)C(F)(F)F (stereo not drawn)
activity change, positive = activation [1]: inactive: -47.9%

Nc1ccc(Cl)cc1C(=O)c1ccccc1F
activity change, positive = activation [1]: inactive: -16.5%

Cc1cccc(CN2C(=O)CN=C(c3ccccc3)c3cc(Cl)ccc32)c1
activity change, positive = activation [1]: inactive: -38.6%

CN(C)CCc1c[nH]c2cccc(O)c12
activity change, positive = activation [1]: inactive: -8.4% [at 116 µM]

CCCc1ccc(OCC(=O)Nc2ccc(Cl)cc2C(=O)c2ccccc2)cc1
activity change, positive = activation [1]: inactive: 4.95% [at 57.5 µM, percent change from vehicle, -100% = no light]

Clc1ccccc1N1CCNCC1
activity change, positive = activation [1]: inactive: -5.65%

CC(C)(C)C(O)C(Oc1ccc(Cl)cc1)n1cncn1 (stereo not drawn)
activity change, positive = activation [1]: inactive: -11% [at 116 µM]

CC(C)c1ccc(NC(=O)CN2C(=O)CN=C(c3ccccc3)c3ccccc32)cc1
activity change, positive = activation [1]: inactive: -20.9% [at 57.5 µM, percent change from vehicle, -100% = no light]

C[C@]12CC[C@H]3[C@@H](CC=C4C[C@@H](O)CC[C@@]43C)[C@@H]1CC[C@@H]2O
activity change, positive = activation [1]: inactive: -8.44%

c1ccc2c(c1)Nc1ccccc1S2
activity change, positive = activation (at 57.5 µM (top of the series)): inactive: -19.3%
activity change, positive = activation (at 116 µM (top of the series)): inactive: -6.97%

COc1cc(CC(C)N)c(OC)cc1Br (stereo not drawn)
activity change, positive = activation [1]: inactive: -9.27% [at 116 µM]

CCC(CC)(CNC(=O)CCCO)c1cccc(OC)c1
activity change, positive = activation [1]: inactive: -1.35%

CC(C)=C[C@@H]1[C@@H](C(=O)OCc2coc(Cc3ccccc3)c2)C1(C)C
activity change, positive = activation [1]: inactive: -10.2% [at 57.5 µM, percent change from vehicle, -100% = no light]

CCCN(CCC)CCc1c[nH]c2ccccc12
activity change, positive = activation [1]: inactive: -16.3% [at 116 µM]

CN1CC[C@]23c4c5ccc(O)c4O[C@H]2[C@@H](O)C=C[C@H]3[C@H]1C5
activity change, positive = activation [1]: inactive: -19.3% [at 116 µM]

O=[N+]([O-])c1cc([N+](=O)[O-])c2ccccc2c1
activity change, positive = activation [1]: inactive: -6.76% [at 116 µM]
